Laboratory results reported in patent publication US11643474B2, “Peptide fusion protein” (KAGOSHIMA UNIVERSITY, priority 2018, dated 2023).

Experiments:
human IgG = experiment: Affinity measurement to IgG by surface plasmon resonance (BIAcore T200); type: binding; settings: ligand immobilized onto sensor chip, HBS-EP buffer pH 7.4
Description: The affinity analysis was performed by the following method. First, a solution containing equal amounts of 0.4 M EDC (1-ethyl-3-(3-dimethylaminopropyl)-carbodiimide) and 0.1 M sulfo-NHS (sulfo-N-hydroxysuccinimide)) was injected at a flow rate of […] onto a CMS sensor chip set in BIAcore T200 (GE healthcare), thereby activating the sensor chip. Then, under the condition of pH 5.5 (10 mM Na acetate), the purified protein (sfGFP-C-1Opt1) described above was immobilized onto the sensor chip. For the measurement, HBS-EP buffer (10 mM HEPES, 150 mM NaCl, 0.005% Tween 20, 3 mM EDTA, pH 7.4) was used, and the binding reaction was monitored by injecting 6.25, 12.5, 25, 50, 100, 200, and 400 nM human IgG for 180 seconds at a flow rate of […]. For measuring the dissociation reaction, only the buffer was injected for 600 seconds. The analysis of interaction parameters was performed using BIA evalution T100 software.
As Comparative Example 1, a scaffold protein (sfGFP having a His tag; DNA sequence: SEQ ID NO: 40, amino acid sequence: SEQ ID NO: 41) to which an IgG-binding peptide was not fused was expressed and purified in the same manner as in Example 1, and affinity was measured.
Proteins including two IgG-binding peptides, each consisting of the amino acid sequences represented by SEQ ID NO: 45, SEQ ID NO: 47, and SEQ ID NO: 49 (sfGFP-N C-2Opt1GS12 (DNA sequence: SEQ ID NO: 44), sfGFP-173 C-2Opt1 GS12 (DNA sequence: SEQ ID NO: 46), and sfGFP-173 C-2Opt1GS13 (DNA sequence: SEQ ID NO: 48)) were expressed and purified by the same method as in Example 1, and the affinity was measured.
As Comparative Example 2, the affinity measurement of the peptide (amino acid sequence: SEQ ID NO: 18) prepared by chemical synthesis was carried out in the same manner as in Example 1.

[1] = system: human serum-derived γ-globulin; experiment: Dynamic binding capacity (DBC) measurement on ligand-immobilized NHS-activated prepack column; settings: 1 mL column; 1 mg/mL γ-globulin at 1 mL/min; 10% breakthrough at 280 nm; equimolar ligand (7.3 mg protein or 0.5 mg peptide)
Description: To examine whether the IgG-binding peptide divalent fusion protein can be used as an affinity ligand for human antibody purification, the protein prepared in Example 2 (sfGFP-173 C-2Opt1 GS12) was immobilized on an NHS-activated prepack column (GE Healthcare), and the adsorption performance was evaluated. The protein-immobilized column was prepared by the following method. A syringe was used to feed the solution.
5 mL of 1 mM hydrochloric acid was fed to a NHS-activated prepack column with a volume of 1 mL to remove the isopropanol solution in the column. Then, 1 mL of a coupling solution (200 mM carbonate buffer, 500 mM sodium chloride, pH 8.3) containing 7.3 mg of an IgG-binding peptide fusion protein was fed and immobilized at room temperature for 1 hour. The unreacted NHS ester was blocked by adding tris-hydroxymethylaminomethane. Finally, 5 mL of an adsorption solution (20 mM phosphate buffer, 150 mM sodium chloride, pH 7.4) was fed and used for DBC measurement.
The DBC measurement was performed using a liquid chromatography instrument AKTAexplore (GE Healthcare). […] The DBC was determined from the amount of the sample fed until the value of an absorbance at 280 nm excluding the non-adsorbed component reached 10% of the absorbance of the entire sample. […]

- Kd (human IgG; human IgG as analyte): 1.8 nM
- DBC (dynamic binding capacity) [1]: 8.9 mg/mL-column
B1: sfGFP-173 C2Opt1GSl2: sfGFP fusion protein including two IgG-binding peptides, amino acid sequence SEQ ID NO: 47; immobilized on column in Example 3 (protein)
chain: MRKGEELFTGVVPILVELDGDVNGHKFSVRGEGEGDATNGKLTLKFICTTGKLPVPWPTLVTTLTYGVQCFARYPDHMKQHDFFKSAMPEGYVQERTISFKDDGTYKTRAEVKFEGDTLVNRIELKGIDFKEDGNILGHKLEYNFNSHNVYITADKQKNGIKANFKIRHNVEGGGGSGGGGSGPDCAYHRGELVWCTFHGGGGSGGGGSDGSVQLADHYQQNTPIGDGPVLLPDNHYLSTQSVLSKDPN[left out - about 20 residues]GGGGSGGGGSGPDCAYHRGELVWCTFHGGGHHHHHH
- kon (human IgG; 6.25-400 nM human IgG injected 180 s): 310000 M⁻¹ s⁻¹
- koff (human IgG; buffer only injected 600 s for dissociation): 0.00054 s⁻¹
